Laboratory results from PubChem BioAssay (NCI).
“And” between values parts separate entries of the source, which are not always exact repeats. Equal entries are not always repeated.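 Briefly, cells in 96-well plates were exposed to five compound concentrations for 48 h, and endpoints were estimated by linear interpolation. GI50: concentration for 50% inhibition of growth. Definition used: TGI = concentration required for complete inhibition of growth.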

The compounds below were run on NCI-H322M lung (assay: NCI-60 cell line screen, 48 h).

**Q.** Which GI50 does the source give for `NC(=S)N=Nc1c(O)[nH]c2ccccc12` here?
**A.** 274 µM

**Q.** And the TGI?
**A.** > 1000 µM

**Q.** How did the TGI turn out when `COc1cc(OC)cc(Oc2nc3c(N)cc(C(F)(F)F)cc3nc2-c2ccccc2)c1` was run?
**A.** > 100 µM

**Q.** With `Nc1cc(N)c2nc(-c3ccccc3)c(Oc3ccc(Cl)c(Cl)c3)nc2c1` as the compound, how does the GI50 read?
**A.** 21.2 µM

**Q.** And the TGI?
**A.** 58.8 µM

**Q.** `O=[N+]([O-])c1ccc2nc(=S)[nH]n2c1` was tested. Which TGI did it give?
**A.** > 100 µM

**Q.** How did the TGI turn out when `COc1c(OC2OC(CO)C(O)C(O)C2O)cc2c(c1OC)-c1ccc(OC)c(=O)cc1[C@@H](NC(C)=O)CC2` (stereo partly drawn) was run?
**A.** > 100 µM

**Q.** For `N#C/C=C\c1ccc(-c2cc(C(F)(F)F)cc(C(F)(F)F)c2)o1`, which TGI is on record?
**A.** > 100 µM

**Q.** For `Cc1ccc2nnc(NS(=O)(=O)c3cc(C)c(Cl)cc3S)n2n1`, which TGI is on record?
**A.** > 100 µM

**Q.** `Cc1ccccc1NC(=O)CC(=O)n1nc(-c2ccccc2)c(N=Nc2ccc([N+](=O)[O-])cc2)c1-c1ccccc1` was tested. Which TGI did it give?
**A.** > 100 µM

**Q.** How did the GI50 turn out when `O=C1/C(=C/c2cccc(F)c2)CN(C(=O)C(Cl)Cl)C/C1=C\c1cccc(F)c1` was run?
**A.** 0.525 µM

**Q.** What about the TGI of the same compound?
**A.** 1.62 µM

**Q.** With `CC1OC(n2cnc3c(N)nc(Cl)nc32)C(C)(O)C1O` (stereo not drawn) as the compound, how does the TGI read?
**A.** > 25 µM

**Q.** How did the TGI turn out when `Cc1nc2c(s/c(=N\N)n2-c2ccccc2)c(=O)n1C` was run?
**A.** > 100 µM

**Q.** For `CC(=O)CC(=O)ON(C)C(=O)Cc1ccccc1`, which TGI is on record?
**A.** > 100 µM

**Q.** Which TGI does the source give for `ClCCCN1CCCCC1CCl` (stereo not drawn) here?
**A.** > 100 µM

**Q.** With `CCCCCC/C(CC(=O)CCC(=O)NCCc1ccccc1)=N\NC(=O)c1ccc2ccccc2c1O` as the compound, how does the TGI read?
**A.** > 100 µM

**Q.** How did the TGI turn out when `CC1=C(C(=O)NCc2ccccc2)C(c2ccccc2O)C(C(=O)NCc2ccccc2)=C(C)N1` was run?
**A.** 41.3 µM

**Q.** With `NC1=CN(Cc2ccccc2)C2=N/C(=C\c3ccco3)C(=O)N12` as the compound, how does the TGI read?
**A.** > 100 µM

**Q.** `CCc1cccc(CC)c1NC(=O)C1=CNC(C)=C(C(=O)Nc2c(CC)cccc2CC)C1c1ccc(O)c(OC)c1` (stereo not drawn) was tested. Which TGI did it give?
**A.** > 100 µM

**Q.** Which TGI does the source give for `CC(=O)Oc1cc2c(n(C)c1=O)CCC2` here?
**A.** > 100 µM

**Q.** How did the TGI turn out when `CC1(C)N=C(N)N=C(N)N1CCCCc1ccccc1` was run?
**A.** > 100 µM

**Q.** How did the GI50 turn out when `O=C(N/N=C/c1cccc(O)c1)c1ccc(C(F)(F)F)nc1Nc1cccc(C(F)(F)F)c1` was run?
**A.** 0.781 µM

**Q.** And the TGI?
**A.** 5.13 µM

**Q.** `CCOc1cc[n+](C(=C=[N-])C#N)cc1` was tested. Which TGI did it give?
**A.** > 100 µM

**Q.** `Nc1nc2c(ncn2CC(CO)CC(c2ccccc2)P(=O)(O)O)c(=O)[nH]1` (stereo not drawn) was tested. Which TGI did it give?
**A.** > 100 µM

**Q.** Which results are given for `C[C@H](c1ccc(Cl)cc1[N+](=O)[O-])N1C(=O)c2cc(I)ccc2NC(=O)[C@H]1c1ccc(Cl)cc1`?
**A.** GI50: 9.22 µM; TGI: > 100 µM

**Q.** What does the source list for `C=CC(=O)Nc1cccc(Nc2nc(Nc3ccc(N4CCN(C(C)=O)CC4)cc3OC)ncc2C(F)(F)F)c1`?
**A.** GI50: 1.37 µM and 1.16 µM; TGI: 5.77 µM and 5.43 µM

**Q.** How did the TGI turn out when `CCc1ncc(C(C)(O)c2ccccc2)n1Cc1ccccc1` (stereo not drawn) was run?
**A.** > 100 µM

**Q.** Which TGI does the source give for `O=c1ccc2nc3ccc(O)cc3oc-2c1` here?
**A.** > 77.5 µM

**Q.** How did the GI50 turn out when `COc1ccc(CNC(=O)c2c(C)n([O-])c3cc(F)c(F)cc3[n+]2=O)cc1` was run?
**A.** 15.5 µM

**Q.** What about the TGI of the same compound?
**A.** 29 µM

**Q.** For `CC(=O)Nc1ccc2c3c(cc(O)c2c1)N(C(=O)CCCCCC(=O)Nc1ccc2c4c(cc(O)c2c1)N(C(=O)OC(C)(C)C)CC4CCl)CC3CCl` (stereo not drawn), which TGI is on record?
**A.** 62.9 µM

**Q.** With `CCN(CC)c1ccc2cc(-c3csc(-c4ccc(N(C)C)cc4)n3)c(=O)oc2c1` as the compound, how does the TGI read?
**A.** > 100 µM

**Q.** Which TGI does the source give for `CCN(CC)c1ccc(N=C2C=CC(=C(C#N)C#N)c3ccccc32)c(C)c1` here?
**A.** 26.8 µM

**Q.** `COc1cc2c(cc1O)N=C[C@@H]1CCC(O)N1C2=O` (mixture of isomers) was tested. Which TGI did it give?
**A.** 28.4 µM

**Q.** For `NC(=O)N/N=C/c1ccccc1O`, which TGI is on record?
**A.** > 100 µM

**Q.** With `CCC(=O)Oc1ccc(/C=N/NC(N)=S)nc1` as the compound, how does the GI50 read?
**A.** 6.34 µM

**Q.** What about the TGI of the same compound?
**A.** > 100 µM

**Q.** Which TGI does the source give for `Cc1cn(C2CC(O)C(Cn3nncc3Cn3ccc(=O)[nH]c3=O)O2)c(=O)[nH]c1=O` (stereo not drawn) here?
**A.** > 100 µM

**Q.** Which results are given for `CC(CNc1nc(Nc2ccc(Cl)c(Cl)c2)nc(C(Cl)(Cl)Cl)n1)N(C)C` (stereo not drawn)?
**A.** GI50: 2.28 µM; TGI: 5.94 µM

**Q.** Which TGI does the source give for `CCOC(=O)c1c(CN2CCOCC2)n(Cc2ccccc2)c2c1cc(O)c1nc(C)c(C)nc12` here?
**A.** > 100 µM

**Q.** Which results are given for `COc1ccc(OC)c(/C=C/C(=O)c2ccc3cc(OC)ccc3c2)c1`?
**A.** GI50: 9.44 µM; TGI: 25.1 µM

**Q.** `NC(C(=O)O)c1ccc(C(=O)O)cc1` (stereo not drawn) was tested. Which TGI did it give?
**A.** > 100 µM

**Q.** With `O=S1(=O)C=C(c2ccccc2)C(c2ccccc2)=C1` as the compound, how does the GI50 read?
**A.** 3.22 µM

**Q.** And the TGI?
**A.** 14.3 µM

**Q.** With `C[C@H](CCCOS(C)(=O)=O)[C@H]1CC[C@H]2[C@@H]3CC[C@@H]4C[C@H](OS(C)(=O)=O)CC[C@]4(C)[C@H]3CC[C@]12C` as the compound, how does the GI50 read?
**A.** 2250 µM

**Q.** `OCC(O)C(OC1OC(CO)C(O)C(O)C1O)c1nn(-c2ccc(Cl)cc2)c2nc3cc(Cl)ccc3nc12` (stereo not drawn) was tested. Which TGI did it give?
**A.** > 100 µM

**Q.** With `N#CC(CC(=O)O)=C(c1ccccc1)c1ccccc1` as the compound, how does the TGI read?
**A.** > 100 µM
